According to patent US20230145766A1:

Assays:
[1] = biological target: T1, IL-2Rβ receptor with an avi tag and an His6 tag at the C-terminus (human) (UniProt P14784); assay: BLI (ForteBio); biotinylated receptor on SA sensor, 100 nM IL-2-Fc in solution, 1:1 model
T1 sequence: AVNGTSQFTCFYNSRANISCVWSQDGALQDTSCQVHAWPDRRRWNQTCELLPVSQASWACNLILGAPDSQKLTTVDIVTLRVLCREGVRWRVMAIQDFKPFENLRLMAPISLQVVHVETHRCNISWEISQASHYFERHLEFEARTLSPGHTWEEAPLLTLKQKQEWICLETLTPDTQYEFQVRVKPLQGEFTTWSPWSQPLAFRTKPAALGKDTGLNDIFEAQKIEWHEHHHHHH

[2] = biological target: T1, IL-2Rβ receptor with an avi tag and an His6 tag at the C-terminus (human); assay: BLI (ForteBio); biotinylated receptor on SA sensor, 100 nM IL-2 mutant molecule in solution, 1:1 model

Y045 (IL-2^WT-2*(G4S)-FcLALA) (no sequence given) (Fc fusion; biotin on the avi tag (enzymatic labelling with BirA); other documents disagree on this pair)
Kd [1]: 41 nM | Kd [2]: 24.5 nM
